Over roughly 18,000 sequences, “TetR repression strength (sort-seq, GFP reporter)” has its median near 0.23; the highest 2% begin near 0.68. Some of the results follow.
molecular target: TetR (class B, Tn10) (UniProt P04483); assay: TetR repression strength (sort-seq, GFP reporter) (relative to tetO2 = 1); higher = stronger repression; details: E. coli
Procedure, shortened: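 Repression strength is the top bin index plus one minus the read-weighted mean bin, relative to the unaltered operator's value. A low-copy library in E. coli SIG10-MAX randomized eight operator positions between a constitutive promoter and sfGFP, with TetR expressed constitutively; cells grew 5 h at 37 °C in LB with 50 µg/mL chloramphenicol and 10^6 were FACS-sorted into 13 bins that were each Illumina-sequenced. Three independent transformations were averaged, keeping only members with ≥30 reads in all replicates and CV ≤0.5.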

Chain of UniProt P04483 (P04483 whole entry): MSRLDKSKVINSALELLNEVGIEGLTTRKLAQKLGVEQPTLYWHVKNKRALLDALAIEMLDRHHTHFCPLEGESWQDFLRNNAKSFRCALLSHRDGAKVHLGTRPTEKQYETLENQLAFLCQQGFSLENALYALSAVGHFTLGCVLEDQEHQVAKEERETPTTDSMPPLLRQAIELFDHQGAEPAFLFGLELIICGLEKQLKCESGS

Sequence	TetR repression strength
TCCCGTGTAGTGTAAGAGA	0.196
TCCCAGAAAGTAACCGAGA	0.466
TCCCCTGCAGTACAAGAGA	0.345
TCCCTATCAGTCATAGAGA	0.924
TCCCGTATAGTGGAAGAGA	0.104
TCCCCGAAAGTGGCAGAGA	0.118
TCCCGGCTAGTTCGTGAGA	0.327
TCCCTTGGAGTCGGCGAGA	0.0727
TCCCGACGAGTGGAGGAGA	0.206
TCCCTATCAGTCCACGAGA	0.322
TCCCTTCTAGTGTCCGAGA	0.426
TCCCTTGGAGTAGCAGAGA	0.173
TCCCGTGTAGTCGGTGAGA	0.331
TCCCTGTAAGTAACTGAGA	0.334
TCCCCATAAGTAGCGGAGA	0.0461
TCCCGGCGAGTTCCGGAGA	0.142
TCCCGCCCAGTGGATGAGA	0.267
TCCCAAAGAGTACCAGAGA	0.169
TCCCATTCAGTAGTTGAGA	0.503
TCCCAGTGAGTTGCCGAGA	0.212
TCCCGTGGAGTTACAGAGA	0.141
TCCCTCAGAGTAACTGAGA	0.313
TCCCATTGAGTTTCGGAGA	0.15
TCCCAACAAGTTTTAGAGA	0.304
TCCCTCAGAGTGTTCGAGA	0.159
TCCCTATGAGTCGGGGAGA	0.292

Sequence	TetR repression strength
TCCCTTCCAGTTTAGGAGA	0.383
TCCCCGCCAGTCTCGGAGA	0.167
TCCCAGGCAGTGGAAGAGA	0.285
TCCCCTCGAGTGAGAGAGA	0.148
TCCCGTCAAGTATAGGAGA	0.218
TCCCCCAAAGTGACGGAGA	0.104
TCCCTGGGAGTATGGGAGA	0.317
TCCCGTGCAGTATCGGAGA	0.104
TCCCACGGAGTAGGCGAGA	0.0624
TCCCGCATAGTTCTAGAGA	0.566
TCCCGGCCAGTGCCTGAGA	0.412
TCCCCGAAAGTCTCGGAGA	0.17
TCCCGACAAGTTGCAGAGA	0.535
TCCCATATAGTGGAAGAGA	0.281
TCCCACCGAGTTGGGGAGA	0.297
TCCCTTATAGTTCCTGAGA	0.355
TCCCAATCAGTTCCGGAGA	0.363
TCCCACTCAGTTTTTGAGA	0.368
TCCCGGGGAGTTCTCGAGA	0.531
TCCCAGTCAGTCACTGAGA	0.104
TCCCGAGGAGTGCTGGAGA	0.432
TCCCTGATAGTGTGGGAGA	0.24
TCCCAATGAGTGGTAGAGA	0.192
TCCCATTCAGTCATTGAGA	0.561
TCCCAGTTAGTCTTTGAGA	0.334
TCCCGCAGAGTGCGTGAGA	0.145

Sequence	TetR repression strength
TCCCTTAGAGTACTGGAGA	0.358
TCCCAGATAGTTCGTGAGA	0.185
TCCCAGTAAGTGGTCGAGA	0.172
TCCCGTTGAGTGGTAGAGA	0.222
TCCCGGTTAGTCTTAGAGA	0.023
TCCCGTATAGTCGATGAGA	0.225
TCCCAGGCAGTTGAGGAGA	0.216
TCCCCTAGAGTTGAGGAGA	0.239
TCCCACAAAGTTTGAGAGA	0.134
TCCCTTCCAGTGCTTGAGA	0.316
TCCCTCCCAGTGGAGGAGA	0.408
TCCCACGTAGTCGCGGAGA	0.0851
TCCCAGTAAGTCCAGGAGA	0.249
TCCCTGATAGTAGACGAGA	0.0214
TCCCATCCAGTTTACGAGA	0.406
TCCCTGATAGTCAGGGAGA	0.2
TCCCTCCGAGTTGAAGAGA	0.183
TCCCCAGGAGTTTGAGAGA	0.232
TCCCAGGAAGTGGTAGAGA	0.0816
TCCCTTGTAGTTGGAGAGA	0.0797
TCCCCTGGAGTGGTTGAGA	0.242
TCCCTTAGAGTCAGGGAGA	0.163
TCCCCATTAGTCGATGAGA	0.513
TCCCGGTTAGTAAGGGAGA	0.247
TCCCACGGAGTATAAGAGA	0.314
TCCCTTATAGTACCTGAGA	0.196

Sequence	TetR repression strength
TCCCCCACAGTTACTGAGA	0.0281
TCCCAGGGAGTGTTGGAGA	0.256
TCCCGGAAAGTAGGCGAGA	0.0444
TCCCTAGAAGTCGCTGAGA	0.359
TCCCTGGCAGTGTAGGAGA	0.15
TCCCTTACAGTGCGGGAGA	0.155
TCCCGAGTAGTATGGGAGA	0.156
TCCCCCGGAGTCTAGGAGA	0.0199
TCCCTAGAAGTTGCTGAGA	0.226
TCCCGTGAAGTTGTGGAGA	0.202
TCCCGTCTAGTCTACGAGA	0.0447
TCCCTGGAAGTAAGAGAGA	0.42
TCCCCGGCAGTACGCGAGA	0.399
TCCCAATAAGTCGGGGAGA	0.208
TCCCGATAAGTCGCGGAGA	0.402
TCCCGTAAAGTGACTGAGA	0.214
TCCCGACTAGTGTTAGAGA	0.265
TCCCGGGAAGTCGCGGAGA	0.0975
TCCCTTTGAGTATAGGAGA	0.14
TCCCTTCCAGTGGGAGAGA	0.151
TCCCGAGTAGTCGGCGAGA	0.104
TCCCCGTGAGTGCACGAGA	0.174
TCCCTGCCAGTTGACGAGA	0.189
TCCCAGACAGTGTCTGAGA	0.132
TCCCTCTCAGTGCTAGAGA	0.599
TCCCTTGTAGTGCGAGAGA	0.233

Sequence	TetR repression strength
TCCCAGGGAGTATATGAGA	0.44
TCCCTTTGAGTTTGTGAGA	0.188
TCCCGGTGAGTGGTGGAGA	0.107
TCCCACCAAGTTTTGGAGA	0.266
TCCCGCAGAGTCTAGGAGA	0.185
TCCCAGGTAGTATTCGAGA	0.17
TCCCACGGAGTGCGAGAGA	0.237
TCCCTGGCAGTGGCCGAGA	0.225
TCCCTATGAGTGTGGGAGA	0.223
TCCCAACCAGTGACTGAGA	0.27
TCCCAAAGAGTGCATGAGA	0.207
TCCCGGCCAGTCGGGGAGA	0.331
TCCCTGCTAGTCCGGGAGA	0.334
TCCCGAAAAGTATTGGAGA	0.207
TCCCCCGCAGTTGTGGAGA	0.119
TCCCCGGGAGTTGGTGAGA	0.276
TCCCCAAGAGTACCCGAGA	0.261
TCCCTTTAAGTAAGTGAGA	0.247
TCCCAGTGAGTGTTCGAGA	0.277
TCCCAGGAAGTATGCGAGA	0.304
TCCCTCTAAGTGTGGGAGA	0.266
TCCCATTTAGTGTTCGAGA	0.119
TCCCGTGGAGTTTACGAGA	0.145
TCCCAAGGAGTAGGTGAGA	0.182
TCCCACCCAGTGCGAGAGA	0.306
TCCCTGAGAGTCATTGAGA	0.112

Sequence	TetR repression strength
TCCCAGCGAGTCGTAGAGA	0.232
TCCCGTGCAGTTCCAGAGA	0.226
TCCCAGGTAGTCGGCGAGA	0.113
TCCCCGCCAGTCTAGGAGA	0.681
TCCCACGGAGTTAGTGAGA	0.352
TCCCGACAAGTCATTGAGA	0.329
TCCCACGAAGTTCGAGAGA	0.258
TCCCTGGGAGTACAGGAGA	0.192
TCCCAGGTAGTTATGGAGA	0.319
TCCCCCTTAGTGGAGGAGA	0.243
TCCCGTGGAGTTCGTGAGA	0.292
TCCCGTTAAGTAGGCGAGA	0.23
TCCCGAGCAGTGGGGGAGA	0.178
TCCCGGGGAGTAAGAGAGA	0.106
TCCCTTTTAGTATACGAGA	0.242
TCCCGTAAAGTGCAGGAGA	0.213
TCCCATGGAGTGCTGGAGA	0.407
TCCCTCCGAGTCGGAGAGA	0.185
TCCCTCAGAGTTGCGGAGA	0.199
TCCCGTGGAGTCACTGAGA	0.171
TCCCTGGCAGTGCGCGAGA	0.135
TCCCCTTCAGTATGGGAGA	0.214
TCCCCTATAGTTGGAGAGA	0.137
TCCCTAATAGTCAACGAGA	0.444
TCCCTATAAGTAGCGGAGA	0.217
TCCCATTAAGTCAATGAGA	0.42

Sequence	TetR repression strength
TCCCGTGGAGTCGTCGAGA	0.253
TCCCAACAAGTGATTGAGA	0.442
TCCCAGCTAGTGACCGAGA	0.694
TCCCTGGAAGTCATTGAGA	0.197
TCCCAGACAGTGGGTGAGA	0.279
TCCCGCAAAGTCCTCGAGA	0.514
TCCCCTTAAGTTCGGGAGA	0.0495
TCCCGATAAGTTGTCGAGA	0.166
TCCCGTCGAGTATTAGAGA	0.317
TCCCGGATAGTGCATGAGA	0.144
TCCCGTCAAGTTCGGGAGA	0.155
TCCCCAAAAGTCTGGGAGA	0.239
TCCCGATTAGTAAACGAGA	0.247
TCCCCTCGAGTCAGGGAGA	0.221
TCCCGCGGAGTGTACGAGA	0.18
TCCCGGGAAGTGGCGGAGA	0.139
TCCCCGAGAGTGGGAGAGA	0.196
TCCCTAGTAGTATAAGAGA	0.0853
TCCCAATTAGTCACAGAGA	0.358
TCCCGGGAAGTTACCGAGA	0.207
TCCCTCGAAGTAAGTGAGA	0.296
TCCCTAGGAGTCCTTGAGA	0.227
TCCCAATCAGTGAACGAGA	0.613
TCCCAGACAGTGTTAGAGA	0.303
TCCCATAAAGTTCAAGAGA	0.224
TCCCTTGGAGTCGCCGAGA	0.404

Sequence	TetR repression strength
TCCCAGTCAGTCGGGGAGA	0.776
TCCCAAGGAGTCGGGGAGA	0.212
TCCCAACCAGTCCTTGAGA	0.346
TCCCATTTAGTTACGGAGA	0.16
TCCCGACGAGTATCGGAGA	0.0681
TCCCCTTAAGTGTGCGAGA	0.448
TCCCTGGGAGTGCGAGAGA	0.303
TCCCGGATAGTATTGGAGA	0.311
TCCCCGCAAGTCGTGGAGA	0.212
TCCCTGCAAGTATGTGAGA	0.33
TCCCGGATAGTCTCCGAGA	0.18
TCCCCTATAGTACCTGAGA	0.263
TCCCCAAAAGTTACGGAGA	0.153
TCCCGTTAAGTGGGGGAGA	0.198
TCCCTCAGAGTGTAGGAGA	0.181
TCCCTGGAAGTGGTTGAGA	0.183
TCCCTTGGAGTGTTGGAGA	0.257
TCCCTCGGAGTGCGCGAGA	0.252
TCCCAGAAAGTACCTGAGA	0
TCCCTGATAGTGATCGAGA	0.362
TCCCCGAAAGTCTTCGAGA	0.2
TCCCGGCAAGTGGACGAGA	0.211

Source: a collection of fitness landscapes (doi:10.1038/s41467-024-54723-y)
